Some of the results follow. These are noisy estimates, calculated here from bound and input reads.
Biological target: T1, Pho4 (S. cerevisiae) (UniProt P07270)
T1 sequence: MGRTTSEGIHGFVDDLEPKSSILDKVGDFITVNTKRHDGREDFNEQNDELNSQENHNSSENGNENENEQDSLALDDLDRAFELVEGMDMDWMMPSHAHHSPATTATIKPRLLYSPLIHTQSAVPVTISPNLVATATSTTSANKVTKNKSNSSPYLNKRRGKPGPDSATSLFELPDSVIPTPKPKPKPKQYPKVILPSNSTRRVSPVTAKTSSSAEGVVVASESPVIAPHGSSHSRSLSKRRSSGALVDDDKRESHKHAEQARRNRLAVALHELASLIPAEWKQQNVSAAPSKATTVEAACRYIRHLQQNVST
Test: relative binding free energy (BET-seq); higher = weaker binding
Settings: reference: library average

Sequence	relative binding free energy [kcal/mol]
GTGCACACGTGTGGGT	0.09
AGGTTCACGTGTGATC	0.3
GGCGGCACGTGATATT	0.06
GGGAGCACGTGGAGCG	-0.05
TTGGGCACGTGGTGAG	-0.13
ATGTTCACGTGGTGAA	0.13
TAGTTCACGTGGCTTG	0.15
ATTTGCACGTGTGGCG	-0.02
GTTGCCACGTGGGATA	-0.04
GAAGACACGTGGGGTA	-0.11
GTTATCACGTGAGCGT	0.29
AAGTGCACGTGAGTTG	0.27
TTGACCACGTGGGGGG	-0.1
GGCAGCACGTGGGTGG	-0.04
TGTGACACGTGATTGC	0.31
TGTTTCACGTGTAATG	0.32
TGGTGCACGTGGAAGC	-0.03
ATTGGCACGTGTCTTG	-0.1
ATCTTCACGTGCGTTT	0.13
TATAGCACGTGATGTT	0.03
AGAAACACGTGAGGGT	0.12
AAGGGCACGTGCAGCG	-0.02
TGGTGCACGTGCGGTT	-0.03
GGAGTCACGTGTTTTT	0.25
TTGGACACGTGATATT	0.09
TTTGTCACGTGAGTAG	0.26

Sequence	relative binding free energy [kcal/mol]
ATGGTCACGTGGTATT	0.03
GTATACACGTGATTGT	0.21
AAGTGCACGTGAGGAG	0.15
TTAAGCACGTGGGTTG	-0.21
GGAGCCACGTGGGTGG	-0.25
CTTTGCACGTGTGAGT	0
GATGTCACGTGGGCGA	0.05
GTTCACACGTGTGGCG	0.13
TGATGCACGTGCGTTA	-0.08
TTGATCACGTGTGATC	0.2
AGAGTCACGTGTGTCG	0.06
TGTTGCACGTGGATCA	-0.07
AAGTTCACGTGTAGTA	0.21
AATTGCACGTGGGGTC	-0.13
GGTAACACGTGTTGAG	0.01
GTTGGCACGTGTAGTT	0.08
TTTATCACGTGTGAGC	0.28
TAATTCACGTGTTGCA	0.08
GTTATCACGTGGCGTC	0.23
TTTGGCACGTGTGTGC	0.11
ATTAACACGTGGTTAG	0.01
TTTTTCACGTGCTTAT	0.19
ATGATCACGTGTGTGA	-0.04
TTGTTCACGTGGTGTA	0.28
ATGGGCACGTGTGTAT	-0.17
CGTCGCACGTGCGGTT	-0.04

Sequence	relative binding free energy [kcal/mol]
AATATCACGTGCTAGT	0.17
GGCTGCACGTGTAGTA	-0.1
TTGACCACGTGAGGGG	0.16
GTTTGCACGTGAGATA	0.41
TGTAGCACGTGTGTCG	0.02
GTAAACACGTGTGGGT	0.03
TCGTGCACGTGGTTGG	-0.11
TTATCCACGTGTAATG	0.14
GGCTGCACGTGCGTGT	-0.12
GGCGTCACGTGTTTGG	0.18
AGGCACACGTGGTAAG	0.17
GGTTACACGTGCGTAG	0.09
TTGGTCACGTGGCTAA	0.06
TTGAACACGTGAGGTA	0.38
TATAGCACGTGAGGCT	0.03
AGGTGCACGTGGGTAT	-0.08
GGGGCCACGTGTAAGA	0.1
TTTGTCACGTGGCGTC	-0.03
GTTGGCACGTGGACAA	0
TTGTGCACGTGATTTG	0.19
CATGACACGTGGGTAA	0.04
TGGATCACGTGGGCCG	-0.06
GCATGCACGTGATGGT	0
CTTCTCACGTGGTGTA	0.09
TAATGCACGTGTGTTA	-0.22
ATGTTCACGTGCGCGG	0.24

Sequence	relative binding free energy [kcal/mol]
ATAGTCACGTGTCCGG	0.19
AAAATCACGTGAGGGG	0.23
TATAACACGTGTATAG	0.06
TAAATCACGTGAAGTG	0.18
GAATGCACGTGCTTTT	0.1
GCGGTCACGTGGTTTC	0.27
AGGGCCACGTGTTGGC	-0.1
GTATTCACGTGACTGG	0.25
CTTTGCACGTGGTGTC	-0.13
AGAAGCACGTGGTTCG	-0.05
GTTGTCACGTGGTGTA	0.05
TAAAACACGTGTGATG	0.05
TAATGCACGTGGTGGA	-0.15
CGTGTCACGTGTGTGA	0.05
AGTTCCACGTGTTGGT	0.08
TTGTGCACGTGTTCTG	-0.05
AATGGCACGTGGGATT	-0.08
GTAGGCACGTGAAGGT	0.2
AATTTCACGTGGATTT	0.33
TTAATCACGTGGCGTA	0.13
TAGTTCACGTGAGGTC	0.51
ATTTGCACGTGCATGA	0.03
CTTGGCACGTGTCATT	-0.06
AGGGGCACGTGTGGCG	-0.07
TGGTACACGTGGCTGA	-0.11
GTGCGCACGTGTCGTT	0.05

Sequence	relative binding free energy [kcal/mol]
GTGGACACGTGGCGGT	-0.1
TTTAGCACGTGGTAGA	-0.17
TTATTCACGTGCAAGT	0.24
GAAGTCACGTGTAATG	0.3
TGGGCCACGTGAAAGT	0.26
TTGAGCACGTGGTTTG	-0.08
CGGGACACGTGAATGG	0.24
CTGATCACGTGAGTGT	0.29
CAGGGCACGTGGGGTA	-0.31
AGAGGCACGTGAAAGG	0.01
AAGTTCACGTGTCGGC	0.31
TTGGGCACGTGGGGGC	-0.11
ATTGACACGTGCGAGT	0.04
GTGTACACGTGTTTTT	0.14
CTTTTCACGTGATGGT	0.41
GGTTCCACGTGAGTTG	0.3
CGGGACACGTGAGTGT	0.23
GTTTGCACGTGGCAAT	-0.01
TTTGACACGTGGTTAT	-0.04
TTCTGCACGTGCTAGG	-0.06
TTTGACACGTGTCGCT	0.01
GCGGACACGTGGGGAA	-0.07
GTTGACACGTGTAGGC	0.2
TTTGACACGTGTAGAT	0.14
ATAGACACGTGTGGCT	0.02
TTAGGCACGTGTAATA	-0.04

Sequence	relative binding free energy [kcal/mol]
AGTATCACGTGTTAAT	0.07
GGGGTCACGTGGAATG	0.13
TGAATCACGTGGCGTT	0.12
AGTTGCACGTGTGCTT	0.09
GGAGTCACGTGCTTTT	0.22
TATGTCACGTGGGCAA	-0.09
CTTTACACGTGAGGGG	0.3
GTGGACACGTGGATTT	0.11
TTCTTCACGTGTTGCT	0.19
AGCTTCACGTGAGGGG	0.4
CTAGTCACGTGTCGGT	0.09
GGTCACACGTGGGTTA	-0.15
GAGGGCACGTGTATGG	0.08
GTCTCCACGTGTGTGG	-0.04
TTTGGCACGTGTTAAT	0
AGAAGCACGTGTAGGA	-0.06
TTGGGCACGTGAACTG	0.11
ATTATCACGTGCGGGT	0.14
GGGTTCACGTGGTGGT	0.35
GTTTTCACGTGATGTC	0.29
TTGCTCACGTGGGGCA	0.06
TGTTGCACGTGTCGGC	0.05
TCGTACACGTGTTGTT	0.05
GGCGGCACGTGCAGAG	-0.06
TGGAGCACGTGTAGGC	-0.04
CAAGACACGTGTTGGA	0.17

Sequence	relative binding free energy [kcal/mol]
AAGTACACGTGCGTTG	0.13
TGGTCCACGTGGTGCG	-0.06
GGAGACACGTGAGGCG	0.12
GAGTCCACGTGGTGTT	0.07
ATCGTCACGTGCGGGG	0.05
TATTACACGTGATTTG	0.18
ATAAGCACGTGGAGCG	-0.08
GAGGGCACGTGTGAGG	0.1
AGGGTCACGTGATTTC	0.22
GTGTACACGTGGGTCG	-0.18
TTGAACACGTGGCATT	0.01
AGTAACACGTGCGTGT	-0.16
GTTAGCACGTGATGCA	0.12
TATAGCACGTGTGGTT	-0.04
TATATCACGTGTCGGT	0.17
TTTGTCACGTGCATAA	-0.01
GTGGACACGTGTGGAT	-0.04
GATGGCACGTGAGGGG	0.1
CGGGGCACGTGTCGAG	-0.18
ATGCTCACGTGTTTAT	0.18
GAATTCACGTGTTTAG	0.35
TGGCTCACGTGGGGTT	0.13
TGTTTCACGTGTGAGT	0.36
GTGGCCACGTGAGGTA	0.22
ACGGCCACGTGGAGGG	-0.04
TCTATCACGTGGATGG	0.27

Sequence	relative binding free energy [kcal/mol]
AGGTGCACGTGCTGTG	-0.03
CGGGGCACGTGCTTGG	-0.26
TGTCCCACGTGGGTTG	-0.16
ACTCTCACGTGGTGGG	0.07
AAGGGCACGTGTTGGG	-0.13
ATATTCACGTGAACGT	0.25
TTAGTCACGTGGAGGC	-0.05
GTGGGCACGTGGTCCT	-0.09
ATTGACACGTGATGGG	0.13
GAAGGCACGTGGAGGC	-0.02
TGGTGCACGTGGCTGT	-0.23
TCTTTCACGTGGGGTC	0.02
TCTGGCACGTGTATTT	0.1
TATTTCACGTGCGTTA	0.08
GACGTCACGTGGGGTT	0.06
TTAGCCACGTGGCTGG	-0.11
ACGTTCACGTGTGTAT	0.15
TAGTTCACGTGCCTGT	0.29
AGGTCCACGTGGGGTG	-0.19
GTGATCACGTGAGTAT	0.21
TGATGCACGTGAGTGT	0.15
TGAATCACGTGGTGCA	0.02
CTTAACACGTGGGATG	-0.06
TAGGTCACGTGCGAGT	0.06
TAGGGCACGTGCCGTG	-0.12
CGTGACACGTGGTTCT	-0.05

Sequence	relative binding free energy [kcal/mol]
TAGTTCACGTGTTGTC	0.34
GTGATCACGTGGGTTG	0.08
GGGGGCACGTGATGGT	0.11
GTTTTCACGTGATGGC	0.45
AAGGTCACGTGTGTCT	0.1
CTATGCACGTGAATGG	0.23
TTAGGCACGTGGACTG	-0.06
CGTTTCACGTGTGAAG	0.14
CTGGTCACGTGAGGGG	0.23
ATGTTCACGTGGAGGT	0.32
TGTGGCACGTGTTCGC	-0.05
TGTGTCACGTGGTTTC	0.15
TCTGTCACGTGGTTGG	0.03
AACGTCACGTGTGAGT	0.21
AGTTACACGTGGTGCA	-0.09
ATTAACACGTGGGGCA	0.03
CGTGGCACGTGGTAAA	0.02
GCGGGCACGTGTCAGT	-0.04
GGCTGCACGTGGTGCG	-0.23
TTCGCCACGTGGAGTT	0.21
ACTTTCACGTGCTGGT	0.34
TGATGCACGTGTTCTT	-0.03
